In patent publication US20250297021A1 (SHANDONG SIMCERE BIOPHARMACEUTICAL CO NO 1, published 2025):

T1: human BCMA-His protein (human, UniProt Q02223 1-54)
T1 construct: bought; also called human BCMA protein; not shown: His tag
T1 sequence (looked up): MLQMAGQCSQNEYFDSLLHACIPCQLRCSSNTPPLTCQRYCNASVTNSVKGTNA

T2: human BCMA on cells (human, UniProt Q02223 1-184)
T2 construct: whole, on cells; also called H929 cells; U266 cells
T2 sequence (looked up): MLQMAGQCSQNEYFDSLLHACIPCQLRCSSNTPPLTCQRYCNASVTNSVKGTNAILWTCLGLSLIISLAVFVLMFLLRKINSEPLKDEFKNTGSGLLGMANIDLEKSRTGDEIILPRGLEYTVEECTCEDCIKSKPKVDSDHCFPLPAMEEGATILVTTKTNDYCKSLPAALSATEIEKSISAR


Experiments:
[1] = biological target: T1, human BCMA-His protein; assay: ELISA, human BCMA-His coated; Ab 0.001 nM
Procedure: (§1) The specific method was as follows: Human BCMA protein (purchased from Acro, catalog number: BCA-H522y) and monkey BCMA protein (purchased from Acro, catalog number: BCA-C52H7) were diluted with PBS to a final concentration of 1 μg/mL, respectively, and then added to a 96-well ELISA plate at 50 μl/well. The plate was sealed with a plastic film and incubated overnight at 4° C., the plate was washed twice with PBS the next day, and then a blocking solution [PBS+2% (w/v) BSA] was added for blocking at room temperature for 2 h. The blocking solution was discarded, the plate was washed 3 times with PBS, and 100 nM BCMA human-mouse chimeric antibody diluted gradiently or control antibody was added at 50 μl/well. After incubation at 37° C. for 2 h, the plate was washed 3 times with PBS. HRP (horseradish peroxidase)-labeled secondary antibody (purchased from Merck, catalog number: AP113P) was added, and incubated at 37° C. for 1 h, and the plate was washed 5 times with PBS. TMB substrate was added at 50 μl/well, and incubated at room temperature for 10 min, then a stop solution (1.0 M HCl) was added at 50 μl/well. The OD450 nm values were read by an ELISA microplate reader (Multimode Plate Reader, EnSight, purchased from Perkin Elmer). The results are shown in Table 7, Table 8 and FIGS. 7A-7B and FIG. 8A-8B. All chimeric antibodies have good binding activity with human BCMA protein; except that BCMA-mAb06 has no cross-binding activity with monkey BCMA protein and BCMA-mAb07 has weak binding to monkey BCMA protein, other chimeric antibodies have good binding activity with monkey BCMA protein. The IgG subtype control is human IgG1.

[2] = biological target: T2, human BCMA on cells; assay: FACS, H929 cells
Procedure: (§2) The desired cells were scale-up cultured in T-75 cell culture flasks to the logarithmic growth phase, and the cells were pipetted into a single cell suspension. After the cells were counted, the cells were centrifuged and the cell pellet was resuspended in FACS buffer (PBS+2% fetal calf serum) to 2×10⁶ cells per ml, and the suspension was added to the 96-well FACS reaction plate at 50 μl per well, then the sample to be tested of the chimeric antibody was added at 50 μl per well and the mixture was incubated at 4° C. for 1 h. The obtained mixture was centrifuged and washed 3 times with a PBS buffer. […] The obtained mixture was centrifuged and washed 3 times with a PBS buffer. 100 μl of the mixture was taken for detection and result analysis by FACS (FACS Canto™, purchased from BD Company). Data analysis was performed by software (FlowJo) to obtain the mean fluorescence intensity (MFI) of the cells. Then, a software (GraphPad Prism8) was used for analysis, data fitting and EC50 calculation. The results are shown in Table 10 and FIGS. 10A-10B, FIGS. 11A-11B, and FIGS. 12A-12B. All seven chimeric antibodies bind to three types of BCMA-expressing endogenous cells.

[3] = biological target: T1, human BCMA-His protein; assay: ELISA, human BCMA-His coated; Ab 0.01 nM
Procedure: as §1

[4] = biological target: T1, human BCMA-His protein; assay: ELISA, human BCMA-His coated; Ab 10 nM
Procedure: as §1

[5] = biological target: T2, human BCMA on cells; assay: FACS, U266 cells
Procedure: as §2

[6] = biological target: T2, human BCMA on cells; assay: cell ELISA, Flp-inCHO-human BCMA cells; Ab 3.70 nM
Excerpt: (§3) The specific method was as follows: The required cells were scale-up cultured in a T-75 cell culture flask to the logarithmic growth phase, the medium was aspirated, the cells were washed twice with a PBS buffer, and then digested with trypsin. Then the digestion was terminated with a complete medium, and the cells were pipetted to obtain a single cell suspension. After the cells were counted and centrifuged, the cell precipitate was resuspended to 4×10⁵ cells per milliliter with a complete medium, and the suspension was added to a 96-well flat-bottomed cell culture plate at 100 μl/well, and cultured overnight in a 37° C., 5% carbon dioxide incubator. On the next day, the medium in the 96-well plate was discarded, the cells were washed once with PBS, and then fixed at room temperature for 0.5 h with an immunostaining fixative (purchased from Beyotime, catalog number: P0098-500 ml) at 50 μl/well. A blocking solution [PBS+5% (w/v) skim milk] was added for blocking at room temperature for 2 h. The blocking solution was discarded, the plate was washed 3 times with PBS, and 100 nM BCMA human-mouse chimeric antibody diluted gradiently or control antibody was added at 50 μl/well. After incubation at 37° C. for 2 h, the plate was washed 3 times with PBS. HRP (horseradish peroxidase)-labeled secondary antibody (purchased from Merck, catalog number: AP113P) was added, and incubated at 37° C. for 1 h, and the plate was washed 5 times with PBS. TMB substrate was added at 50 μl/well, and incubated at room temperature for 10 min, then a stop solution (1.0 M HCl) was added at 50 μl/well. The OD450 nm values were read by an ELISA microplate reader (Multimode Plate Reader, EnSight, purchased from Perkin Elmer). The chimeric antibodies bind well to Flp-inCHO-human BCMA cells. The IgG subtype control is human IgG1.

[7] = biological target: T2, human BCMA on cells; assay: cell ELISA, Flp-inCHO-human BCMA cells; Ab 100.00 nM
Excerpt: as §3

[8] = biological target: T2, human BCMA on cells; assay: cell ELISA, Flp-inCHO-human BCMA cells; Ab 11.11 nM
Excerpt: as §3

[9] = biological target: T1, human BCMA-His protein; assay: ELISA, human BCMA-His coated; Ab 0.1 nM
Procedure: as §1

[10] = biological target: T1, human BCMA-His protein; assay: ELISA, human BCMA-His coated; Ab 1 nM
Procedure: as §1

Row | Binder | OD450 [1] | EC50 [2] | Maximum mean fluorescence intensity [2] | OD450 [3] | OD450 [4] | EC50 [5] | Maximum mean fluorescence intensity [5] | OD450 [6] | OD450 [7] | OD450 [8] | OD450 [9] | OD450 [10]
1 | BCMA-mAb04 (Fc fusion) scFv: QVQLQQSGAELARPGASVDLSCKASGYSFTSYGISWVKLRTGQGLEWIGEIYPRDDITYYNEKFKGKTTLTADKSSSTAYMELRSLTSEDSAVYFCARHDYYYVNSVSAMDYWGQGTSVTVSSGGGGSGGGGSGGGGSDIVMSQSPSSLAVSVGEKVTMSCKSSQSLLYSSNQKNYLAWYQQKPGQSPKLLIYWASTRYSGVPDRFTGSGSGTDFTLTVSSVRAEDLALYYCQQYYIYPWTFGGGTKLEIK[human IgG1 Fc with C220S (EU numbers) not spelt out] | 0.08 | 167 nM | 7070 | 0.11 | 2.59 | 32.2 nM | 2850 | 0.81 | 1.15 | 0.94 | 0.26 | 1.31
2 | BCMA-mAb02 (Fc fusion) scFv: EVQLVESGGDLVQPGESLKLSCESNAYEFPSYDMSWVRKTPEKRLELVAAINSDGGITYYPDTMERRFIISRDNTKKTLYLQMSSLRSEDTALYYCARHGYGGGAYVLDYWGQGTSVTVSSGGGGSGGGGSGGGGSDIVMTQSQKFMSTTVGDRVRITCKASQNVGTAVAWYQQKPGQSPKVLIYSASSRYTGVPDRFTGSGSGTDFTLTINNMQSEDLADYFCQQYSNYHLTFGTGTKLELK[human IgG1 Fc with C220S (EU numbers) not spelt out] | 0.05 | 16.5 nM | 8770 | 0.06 | 2.42 | 8.51 nM | 3720 | 0.91 | 1.18 | 1.06 | 0.24 | 1.01
3 | BCMA-mAb03 (Fc fusion) scFv: QIPLVQSGPELKKPGETVKISCKASGYTFTNYAMTWVKQAPGKGLKWMGWIDTYSGVPTYADDFKGRFAFSLETSATTAYLQINNLKNEDTATYFCARVGVYGGYDTLDSWGQGTSVTVSSGGGGSGGGGSGGGGSDIQMTQTTSSLSASLGDRVTISCSASQGISNHLNWYQQKPDGTVKLLIYYTSSLHSGVPSRFSGSGSGTDYSLTISNLEPEDFATYYCQQYNNLPWTFGGGTKLEIK[human IgG1 Fc with C220S (EU numbers) not spelt out] | 0.07 | 104 nM | 7790 | 0.09 | 2.51 | 20.5 nM | 3070 | 0.73 | 1.15 | 0.87 | 0.21 | 1
4 | BCMA-mAb01 (Fc fusion) scFv: EVKLVESGGGLVQPGGSLKLSCAASGFTFSDFYMYWVRQTPEKRLEWVAYITNGGENTYFPDTVKGRFTISRDNAKNTLYLQMSRLKSEDTAMYYCARQNPFYYYDSNYDYAMDFWGQGTSVTVSSGGGGSGGGGSGGGGSDVVMTQTPLTLSVTIGQPASISCKSSQSLLYSNGKTYLSWLFQRPGQSPKRLIYLVSELDSGVPDRFTGSGSGTDFTLKISRVEAEDLGIYYCVQGTHFPHTFGGGTKLEIK[human IgG1 Fc with C220S (EU numbers) not spelt out] | 0.06 | 9.02 nM | 8390 | 0.1 | 2.52 | 5.46 nM | 3500 | 0.86 | 1.08 | 0.9 | 0.43 | 1.76
